According to PubChem BioAssay (NCI):
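These data come from cells grown in 96-well plates and exposed to compound for 48 hours at five concentrations. GI50 marks 50% less growth. TGI: concentration producing complete growth inhibition.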

Tested on: NCI-H322M lung
Assay: NCI tumour cell line growth inhibition, 48 h

COc1cc2c3c(n(CCCN4CCCC4)c(=O)c2cc1OC)-c1cc2c(cc1C3=O)OCO2
GI50: 1.65 µM | TGI: 3.62 µM

CCOC(=O)Nc1cccc(-n2cnc3cc(-c4ccc(O)cc4)ccc32)c1
GI50: 1.28 µM | TGI: > 64.2 µM
